# Source: the supplement of paper PMC3334620
# Whole data set: some 33,000 sequences, median “E-score (-0.5 to 0.5)” near -0.012, cut for the highest 2% near 0.29. The list shows a part of the results.
# Target: T1, Ybr033w (UniProt P38073)
# T1 sequence: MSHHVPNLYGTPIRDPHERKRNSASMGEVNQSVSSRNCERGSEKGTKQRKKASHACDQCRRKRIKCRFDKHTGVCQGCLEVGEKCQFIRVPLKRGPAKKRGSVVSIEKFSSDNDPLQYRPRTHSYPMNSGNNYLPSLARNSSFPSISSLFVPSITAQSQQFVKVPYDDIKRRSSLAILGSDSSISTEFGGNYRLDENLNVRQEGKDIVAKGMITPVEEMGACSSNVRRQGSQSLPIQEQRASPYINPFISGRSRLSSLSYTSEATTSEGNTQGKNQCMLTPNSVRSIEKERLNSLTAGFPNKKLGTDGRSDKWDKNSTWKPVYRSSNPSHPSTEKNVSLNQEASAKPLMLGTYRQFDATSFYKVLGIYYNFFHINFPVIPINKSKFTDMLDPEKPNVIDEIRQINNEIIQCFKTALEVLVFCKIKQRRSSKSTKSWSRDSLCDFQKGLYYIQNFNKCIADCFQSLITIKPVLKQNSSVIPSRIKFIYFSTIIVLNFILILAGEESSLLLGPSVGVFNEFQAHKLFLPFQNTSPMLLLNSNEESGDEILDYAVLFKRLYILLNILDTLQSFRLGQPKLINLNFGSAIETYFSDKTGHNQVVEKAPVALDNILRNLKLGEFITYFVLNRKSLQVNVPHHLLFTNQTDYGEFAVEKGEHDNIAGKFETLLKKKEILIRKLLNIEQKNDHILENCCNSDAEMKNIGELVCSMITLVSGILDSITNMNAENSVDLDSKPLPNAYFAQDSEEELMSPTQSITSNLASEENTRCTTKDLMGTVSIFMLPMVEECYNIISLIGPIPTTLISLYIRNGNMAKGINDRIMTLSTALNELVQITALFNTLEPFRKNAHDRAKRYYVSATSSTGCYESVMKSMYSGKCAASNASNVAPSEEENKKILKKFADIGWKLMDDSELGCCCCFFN
# Assay: PBM E-score (8-mer binding enrichment) (E-score (-0.5 to 0.5)); higher = stronger / more preferred TF binding; most listed sequences are background and not binding sites
# Settings: protein concentration: 200 nM; construct: GST-full length
# In short: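 Universal all-10-mer Agilent arrays, double-stranded by primer extension on fresh or once-stripped slides, were probed with about 100-200 nM GST-tagged yeast transcription factors made by PURExpress. Fluorescent anti-GST detected bound protein, and masliner normalised the scans. E-scores from the Universal PBM Analysis Suite were given to each ungapped eight-base word pooled with its reverse complement.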
row,Sequence,PBM E-score
1,AGATTGTG,0.0549
2,ATTTGCTC,0.124
3,TCTCGACA,0.0966
4,CACCTAAC,-0.0488
5,CTGGTTTA,0.0565
6,GCTTTCGA,-0.0195
7,AGTACACA,0.157
8,CCACTTCG,-0.0158
9,CAACTGTA,0.0201
10,CCCGAGGA,-0.0344
11,ATGTCAGG,-0.189
12,ATTGTTTC,0.199
13,CTTTGATA,0.196
14,AGGAGGAG,-0.213
15,CGGTGTTC,-0.0747
16,AAAGCCCC,-0.244
17,CTTGTCTC,-0.172
18,CAAGATTA,0.185
19,CTCTGTGC,-0.186
20,CAAAAGAA,0.252
21,CCATGCTC,-0.286
22,CAAAGCAG,0.0445
23,AGGGGCGC,-0.279
24,AAACTTTC,0.0756
25,AAGGAGCC,-0.0981

row,Sequence,PBM E-score
1,ACTTATAT,0.328
2,ATCTTTAA,0.299
3,ACAGGCGT,-0.24
4,CGCTTGAA,0.133
5,ATACATGG,0.143
6,CAATCCCA,-0.15
7,ACGTGAGG,-0.105
8,ATTAATGA,0.354
9,ATCAGAGG,-0.123
10,AAACAATC,0.234
11,AAGTCGGC,-0.18
12,AATTTACG,0.232
13,ACCAGTCG,0.0889
14,ATCGTGTC,-0.0353
15,CAGAGAAA,0.142
16,GCTCACAC,-0.12
17,GGTACGAA,0.0855
18,AGGCGAAT,-0.0337
19,ATGCTGGG,-0.179
20,GAGATGCA,-0.00763
21,ATCTTGGA,0.103
22,ACTCTAGA,0.0991
23,CATGCCCA,-0.207
24,ACGAAAGG,-0.00916
25,CCCTAATC,-0.211

row,Sequence,PBM E-score
1,ACACTCAT,0.114
2,ACGAAGTC,-0.0462
3,GCGGCCGC,-0.174
4,AGCGTGTG,0.0219
5,CAACGACG,0.116
6,ATAAACGA,0.227
7,GCATGGAC,-0.154
8,CTGAATCA,0.0662
9,CAGACCGG,-0.163
10,CGAGACAC,-0.0369
11,AGGCCAAC,-0.12
12,GTTGTTTA,0.267
13,CCGGCACA,-0.251
14,ATATAAAA,0.242
15,AGAGGCCG,-0.297
16,ACGGTTTA,-0.107
17,ACTTATCT,0.204
18,ATTGATGC,0.145
19,CGATCGAG,-0.101
20,GCATAACA,0.13
21,CACGAGAA,0.0144
22,CCATCGGA,-0.191
23,CTCGTGAA,0.0404
24,GACCTAGC,-0.16
25,GCGGTTAA,0.0391

row,Sequence,PBM E-score
1,GTGAACGA,-0.047
2,GCTTTTAC,0.0781
3,AACGTAAA,0.203
4,ATAGGTCC,0.0798
5,ATGATGTG,0.0387
6,CGTCAGAC,-0.131
7,AGATTTTC,0.322
8,CACGGCAG,-0.158
9,AACGGCGC,-0.133
10,CGTCCGAA,0.0162
11,GTCTTTTA,-0.257
12,ACGCGTCT,-0.12
13,GACGTCAA,-0.013
14,AGCCCCTG,-0.393
15,ATAGAAGG,-0.176
16,AACCCTAA,0.138
17,GCAAGTGC,-0.086
18,CTGCGCTC,-0.231
19,AGTGCCCG,-0.17
20,CTGAATGA,0.103
21,AAAGCCGT,0.0257
22,ATCTTTTA,0.236
23,GCACGGGC,-0.318
24,CGCATGCG,-0.202
25,ACGGTCGA,-0.0846

row,Sequence,PBM E-score
1,CGTGGACA,-0.063
2,AACCGTTG,-0.0126
3,ACAGGGCC,-0.285
4,CTACAGCC,-0.202
5,CTAGGAAC,0.0556
6,AAAACTGC,0.0906
7,CTCCTTGC,-0.13
8,GGCCGAAA,0.0513
9,AACGAAGA,0.0681
10,AAACGGTC,0.00782
11,CCTATGGC,-0.173
12,AGAATGGG,-0.121
13,GCCGCGCA,-0.0876
14,ACTCAGGA,0.0245
15,AAAACGTG,0.0251
16,GCGGTAAC,0.0151
17,AAGATCGG,-0.184
18,AGGATCTA,-0.163
19,ATTACGGA,0.156
20,GGAAAAGA,0.0452
21,GGCCGCAC,-0.213
22,AATCCCGT,0.141
23,TCGTAACA,0.149
24,GATGTAAA,0.137
25,GATCCGAA,0.132

row,Sequence,PBM E-score
1,AGAGGTAA,0.0981
2,TATGATCA,0.0776
3,AGGGAAAC,-0.243
4,ATGGAACA,0.182
5,CACTAAAA,0.221
6,CGTTAAAC,0.166
7,CCCTTAGC,-0.222
8,CCTACAGG,-0.155
9,CCAGCCCG,-0.156
10,TCTTTCCA,-0.0221
11,AAAGGTAA,0.0929
12,ATAACAAG,0.191
13,CGATGGAC,-0.0622
14,AATTCAAC,0.184
15,ACTATCCG,0.16
16,GACTACGC,-0.113
17,CTCCGGAA,0.22
18,ATATTTGG,0.169
19,CTCACTGA,-0.00144
20,GGGCAGAC,-0.241
21,CACCGGCC,-0.372
22,GGCAGTGA,-0.141
23,GCGTACGC,-0.188
24,ACTTTCGA,0.0977
25,AAAAGTTA,0.288

row,Sequence,PBM E-score
1,AATCGGCA,0.0821
2,CAAAAGAG,0.0769
3,ATCCACAG,0.0329
4,ATTATGAG,0.0699
5,AACGAGGC,-0.195
6,AAAGTTGT,0.302
7,AGTAGGGG,0.0688
8,AGTCTTCA,-0.0281
9,GAGCAACC,0.00662
10,GGCTGTGA,-0.201
11,CGAACGGC,-0.0994
12,ATTGAATA,0.305
13,ATTAGACG,0.0658
14,ATAGACAT,0.0519
15,CTTCGGCC,-0.24
16,GCATGACA,0.0303
17,GGAGACCC,-0.232
18,GATTGCCA,-0.00966
19,CTGCGTTA,0.00928
20,AACCAAAT,0.228
21,ATTTACTC,0.272
22,TAAACCAA,0.252
